Results: PubChem BioAssay AID624296 (National Center for Advancing Translational Sciences (NCATS), 2012)
Screen size: about 350,000 compounds; about 9,900 (2.8%) were called active. The shares of active, inactive and inconclusive entries below differ from those in the screen. Calls follow the shape of the dose curve; as a rule, active = well fitted activation curve with a large enough effect; inconclusive = small, poorly fitted or top-dose-only effect; inactive = no such curve, though single readings can be large or run the other way. Potencies of inconclusive entries are left out as doubtful fits.

Test: A quantitative high throughput screen for small molecules that induce DNA re-replication in MCF 10a normal breast cells. Also: nearly all actives have a fitted effect of over 50% in size. As to activity, positive = re-replication: % of control where 0% means no effect.
Settings: MCF 10A DNA re-replication, Hoechst nuclear intensity, 48 h; activity, positive = re-replication: at 46.1 µM (top of the series)
Potency is read from the fitted curve at half-maximal effect; tags tell the direction and shape of the fitted curve.

SMILES	Potency	activity, positive = re-replication
COc1cc2nc(N(C)C)nc(N)c2cc1OC	inconclusive [activator, single point]	
O=C(N/N=C/c1c[nH]c2ccccc12)c1ccn[nH]1	active: 0.58 µM	
O=C(Cn1cc(S(=O)(=O)N2CCN(c3ccccc3F)CC2)c2ccccc2c1=O)NCCCN1CCCCCC1	inconclusive [activator, single point]	
COC(=O)c1cc2c(n(Cc3ccccc3)c1=O)CCCC2=O	inconclusive [activator, single point]	
Cc1ccc(NC(=S)NNS(=O)(=O)c2ccc3ccccc3c2)cc1Cl	inconclusive [activator, single point]	
O=C(CCc1ccncc1)N1CCCC(Nc2ccc(F)c(F)c2)C1 (stereo unspecified)		inactive: 6.33%
COc1ccc2[nH]c3c(c2c1)CCN1C(=O)C(CC(=O)NCC24CC5CC(CC(C5)C2)C4)C[C@H](C(=O)N2CCCCC2)[C@@]31C (stereo partly specified)	inconclusive [activator, partial curve, poor fit]	
O=C1/C(=C\c2ccc(-c3ccccc3[N+](=O)[O-])o2)C(c2ccccc2)=NN1c1ccccc1	inconclusive [activator, single point]	
Cc1ccc(NCN2C(=O)C(=O)c3ccccc32)nc1	inconclusive [activator, single point]	
Cc1ccc(C2CC(=O)C(C=NCCN3CCN(C(=S)Nc4ccc(F)cc4)CC3)=C(O)C2)cc1 (stereo unspecified)	inconclusive [activator, single point]	
CN(C(=O)c1ccc2c(c1)S(=O)(=O)N=C1CCCCCN12)c1ccccc1	inconclusive [activator, single point]	
Brc1ccc(-n2cnc(-c3ccccc3)c2)cc1	inconclusive [activator, single point]	
COc1cccc(/C=N/NC(=O)CSc2nnc(C)n2-c2ccccc2)c1O	inconclusive [activator, partial curve, poor fit]	
CCOc1cc(C(=O)OCC(=O)Nc2ccc(SC(F)F)cc2)cc(OCC)c1OCC	inconclusive [activator, single point]	
Cc1ccc[n+](C(C)C(=O)Nc2ccc(C)c(C)c2)c1 (stereo unspecified)	active: 0.231 µM	
CN(C)c1ccc(P(=O)(OCc2ccccc2)C(O)c2ccccc2)cc1 (stereo unspecified)	inconclusive [activator, full curve, poor fit]	
CCSc1ncc(/C=N/Nc2ccc(Cl)cc2)n1C	inconclusive [activator, partial curve, poor fit]	
CN1CCN(CC(O)COc2ccc(S(=O)(=O)N3CCOCC3)cc2)CC1 (stereo unspecified)	inconclusive [activator, single point]	
CCCN1C2CCCC1CC(NC(=O)Nc1ccc(C(C)C)cc1)C2 (stereo unspecified)	inconclusive [activator, single point]	
CCOc1cc(NC(=O)c2cccs2)c(OCC)cc1NC(=O)CCC(=O)NCCN1CCOCC1	inconclusive [activator, partial curve, poor fit]	
COc1ccc(C(=O)N/C(=C\c2ccc3c(c2)OCO3)C(=O)Nc2ccc(C(=O)O)cc2)cc1	inconclusive [activator, single point]	
CN(Cc1ccccc1)S(=O)(=O)c1ccc(Cl)c(C(=O)N2CCC(C(N)=O)CC2)c1	inconclusive [activator, partial curve, poor fit]	
Clc1ccc(-c2nnc(-c3ccccc3)c(-c3c[nH]c4ccccc34)n2)cc1	inconclusive [activator, single point]	
OCC1O[C@H](O[C@H]2C(O)C(O)C(O)O[C@@H]2CO)C(O)C(O)C1O (stereo partly specified)		inactive: -4.17%

SMILES	Potency	activity, positive = re-replication
CC(C)C(=O)N(c1ccc2oc(=O)sc2c1)S(=O)(=O)c1ccccc1		inactive: 13.1%
Cc1ccccc1OCC(=O)NNC(=S)NC(=O)c1ccccc1[N+](=O)[O-]		inactive: -5.74%
C/C=C/c1ccc(OCC(O)CNCC(c2ccc(OC)cc2)N(C)C)c(OC)c1 (stereo unspecified)		inactive: -0.0322%
COc1ccc(-c2ccc(S(=O)(=O)NCC3CCCO3)cc2)cc1 (stereo unspecified)		inactive: -8.83%
c1ccc(-c2cn3nc4c(nc3n2)CCCC4)cc1	inconclusive [activator, single point]	
COc1ccc(/C=N/NC(=O)c2ccn[nH]2)cc1COc1ccc(F)cc1		inactive: 112%
c1ccc2c(c1)ncn2-c1ccc(-c2ccnc3ncnn23)cc1	inconclusive [activator, partial curve]	
COc1ccc(CCNC(=O)C(=O)NCC2OCCN2S(=O)(=O)c2ccc(OC)c(OC)c2)cc1 (stereo unspecified)		inactive: -0.953%
Cc1n[nH]c(=O)c2c(NC(=O)CSc3nn(-c4ccccc4)c(=S)s3)oc(C)c12		inactive: 12.8%
O=C(Nc1ccc(S(=O)(=O)Nc2cnc3ccccc3n2)cc1)c1ccc(F)cc1		inactive: -4.8%
Nc1nc2c(F)cccc2s1		inactive: -1.81%
Cc1ccccc1N(C(=O)Cc1ccsc1)C(C(=O)NC1CCCCC1)c1ccc(F)cc1 (stereo unspecified)	inconclusive [activator, single point]	
COCCN(C(=S)Nc1ccc(Cl)cc1OC)C1CCN(C(C)=O)CC1		inactive: -6.07%
CNc1sc(C(=O)c2ccc(F)cc2)c(N)c1-c1nc2ccccc2s1	active: 16.4 µM	
COc1ccc(S(=O)(=O)N/N=C\c2ccccc2F)cc1		inactive: 9.64%
CCOC(=O)CSc1nnc(-c2ccc(OC)cc2OC)o1	inconclusive [activator, single point]	
COc1ccc(NC(=O)c2cccc(S(=O)(=O)NCc3ccccc3)c2)cc1S(N)(=O)=O		inactive: 3.03%
O=C(NNC(=S)NC(=O)c1cccs1)c1ccc(NC(=O)c2ccccc2)cc1	inconclusive [activator, single point]	
O=C(c1ccc(Oc2cc(Cl)cc(Cl)c2)o1)N1CCCCC1		inactive: 8.01%
CCSc1nc(-c2ccccc2)nc(C(Cl)Cl)n1	active: 11.6 µM	
O=C(NCc1ccc(F)cc1)c1ccc(CNc2c(N3CCOCC3)c(=O)c2=O)cc1		inactive: -12.8%
Cc1nc(SCCOc2ccc(F)cc2)c2ccccc2n1		inactive: -8.25%
COCCN=C(NS(=O)(=O)c1cccs1)c1ccccc1Cl		inactive: 11.3%
O=C1NC[C@H](Cc2ccccc2)N(CC2CCN(CCC3CCCC3)CC2)C1=O	inconclusive [activator, partial curve, poor fit]	

SMILES	Potency	activity, positive = re-replication
CCN1CCN(C(=O)NC2CCCCC2)CC1	inconclusive [activator, single point]	
CCN1C(=O)c2ccc(C(=O)Nc3ncc(C)s3)cc2C1=O		inactive: -0.784%
CN(C)CCCN(C(=O)c1ccc(Br)s1)c1nc2cc3c(cc2s1)OCCO3	inconclusive [activator, single point]	
CCOc1ccc(OCC)c(NC(=O)CN(C)S(=O)(=O)c2ccc3nc(C)sc3c2)c1	active: 20.6 µM	
Cc1[nH]c2ccccc2c1C(=O)CN1CCC(C)CC1		inactive: 1.1%
CCN(CC)C(=O)CSCC(=O)Nc1ccccc1	active: 8.2 µM	
CC(C)(C)OC(=O)N(CCc1ccccc1)Cc1ccccc1OCc1ccc(NC(=O)C2CCC2)cc1	active: 6.51 µM	
O=C(c1ccc(Cl)c(Cl)c1)N1CCC(=O)N(C(COCc2cccc(C(F)(F)F)c2)Cc2ccccc2)CC1 (stereo unspecified)	inconclusive [activator, single point]	
Cc1ccc(S(=O)(=O)N2CCn3cccc3C2C)cc1 (stereo unspecified)	inconclusive [activator, partial curve, poor fit]	
Cc1cc(Nc2ccc(Cl)cc2)nc(N2CCOCC2)n1		inactive: 4.08%
CCCS/C(N)=N/N=C/c1cc(C)ccc1O	inconclusive [activator, single point]	
Cc1cc(C(=O)NC2CCC(C)CC2)c(C)o1 (stereo unspecified)	inconclusive [activator, single point]	
C=C(C)CN=C1NN=C(c2cc(C)n(-c3ccc(C)cc3)c2C)CS1	inconclusive [activator, partial curve]	
C=CCn1c(-c2oc3nc(-c4ccccc4)cc(-c4ccccc4)c3c2N)n[nH]c1=S	active: 7.31 µM	
COC(=O)c1[nH]c2ccc(Cl)cc2c1NC(=O)CN1CCc2cc(OC)c(OC)cc2C1	inconclusive [activator, single point]	
O=C(CSc1nc2cc(Cl)ccc2o1)Nc1ccc(N2CCOCC2)cc1	inconclusive [activator, partial curve, poor fit]	
COc1cc(S(=O)(=O)n2cnc(C)c2)ccc1Br	inconclusive [activator, single point]	
CN1CCN(C(=O)C2=C[C@@H](c3csc4ccccc34)C[C@@H](OCc3ccc(CO)cc3)O2)CC1		inactive: 6.26%
CC1CCN(C2CCN(S(=O)(=O)c3ccc(F)cc3)CC2)CC1		inactive: -0.325%
CCOc1ccc(NC(=O)CNc2cccc(S(=O)(=O)N3CCCCCC3)c2)cc1OCC	inconclusive [activator, partial curve, poor fit]	
O=S(=O)(c1ccc(F)cc1)N1CCCC(c2nc(-c3ccc(F)cc3)no2)C1 (stereo unspecified)	inconclusive [activator, single point]	
Cc1ccc(C(C)C)c(OCC(=O)NNCC(=O)Nc2cccc(F)c2)c1	inconclusive [activator, single point]	
Cc1ccc(/C=C2\S/C(=N/S(=O)(=O)c3cccs3)NC2=O)cc1		inactive: -0.0281%
